# Test results as given in the supplement of paper PMC11417369.
# ± gives the standard deviation of the averaged measurements. The list shows a part of the results.
# System: PfAP2-EXP AP2 domain (GST-tagged)
# Test: gcPBM binding intensity (ln(normalized median fluorescence intensity)); higher = stronger DNA binding
# Method in brief: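 After 1 h on an Agilent 4 × 180k array of primer-extended double-stranded 36-bp intergenic genomic probes and negative controls, bound GST-tagged P. falciparum DNA-binding domains were detected with Alexa488 anti-GST antibody and scanned at 488 nm. The domains had been expressed in E. coli, and binding took place in 1× PBS with 1% milk, 0.2 mg/ml BSA, 0.5% salmon testes DNA and 0.03% Triton X-100. Binding intensity is the highest Masliner-normalised natural-log median intensity across replicate spots of either probe orientation.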
row,Sequence,gcPBM binding intensity (ln)
1,TTTTGTAAAAGGTATATATATATATATATATATATA [GTGCAC_negctrl_site734],10.1 ± 0.49
2,CGTATTTTAATATTTACACACTTATTTTTTATATAA [CACACA_site125],8.55 ± 0.29
3,AATAAAAAAATAAAAAAAAAAAAAAATAAAAAAAAA [GTGCAC_negctrl_site12],8.26 ± 0.35
4,TATAGCATATTTCACACACACATAATGAATATTATA [CACACA_site3545],8.37 ± 0.46
5,TTTATATAGAAAAATTGTACGAATTACTTTTTTATA [XGTACX_site6843],8.07 ± 0.13
6,AAAATGTACTTTTTCTAAAGAGTAATGATGCTTGAT [CACACA_negctrl_site1124],8.52 ± 0.45
7,TTTAACGTTGAATATACACACATATATTTATTTATA [CACACA_site7695],8.32 ± 0.3
8,AATCCTTTAAAACACACACACAAAAAAAAAAAAAAA [CACACA_site642],8.13 ± 0.49
9,TTTTTAATACAAAAAAAATAATATGTTATATTTCAA [CACACA_negctrl_site35],7.92 ± 0.43
10,ATGAAATATGCACAGTGTACTTTTATGAGGAACATA [XGTACX_site426],8.65 ± 0.26
11,GGGAATATATAAGATACACACACAAATTAAATATAA [CACACA_site8898],8.68 ± 0.45
12,AATTAACCGTGACACACACACATATAAATATAAATA [CACACA_site7790],8.59 ± 0.37
13,TGCCCTTTGGTTATAACACACATGCACACGTAAATA [CACACA_site7750],8.96 ± 0.41
14,TATATATATATATATACACACACACCCACCAAAGCG [CACACA_site7904],10.3 ± 0.26
15,AATAAAATAATAGGCACACATATATATATATATTAT [CACACA_site273],8.69 ± 0.34
16,ATATCCTACTTCTAGTGTACATATATGGACTGATGA [XGTACX_site3683],8.87 ± 0.35
17,ATATATCTACATATATGTACATATATGTATATGTAT [XGTACX_site5432],8.41 ± 0.2
18,TACAATTTATGACACACACACAATAATACCTATATA [CACACA_site6704],8.6 ± 0.52
19,AAAAAAAAAAAACACACACACACACTAGTACATACA [CACACA_site4551],8.78 ± 0.5

row,Sequence,gcPBM binding intensity (ln)
1,TATATATATATATGTGCACACATAAAGATATTATTT [CACACA_site3734],10.2 ± 0.45
2,AAAATAAAAAGAAAAAATAAAAAGAAAAAATAAAAA [CACACA_negctrl_site120],8.33 ± 0.44
3,TTATATAATCCTTTCAAACACACAAAATATAATTAA [CACACA_site1830],8.43 ± 0.39
4,AGTGAAAAAAAATTTACACACATAAAATATAAACGA [CACACA_site3724],8.7 ± 0.4
5,TAATACTTTTAATCTACACACGCTGAGACATGCTTT [CACACA_site1484],8.37 ± 0.41
6,TTTTTTATTCTTTTTGCACACAGGAAATTTACAGAT [CACACA_site1090],8.89 ± 0.26
7,TTTTTAGTTCATTAAACACACAAAAAAAAAAATAAA [CACACA_site6035],8.29 ± 0.48
8,AAATAAAATACATATAAACACACATATAAACCAACA [CACACA_site8789],8.88 ± 0.61
9,AAAAAAAATATAAGTGGTACTCACATAAAGACATAT [XGTACX_site3709],8.84 ± 0.42
10,ATAAATAATTGTAGTTGTACATGATATTTTTATTAC [XGTACX_site550],8.36 ± 0.33
11,AAAAAAAAAAAAAACACACACACAAATACAAATACA [CACACA_site414],8.6 ± 0.57
12,TACAAAAAAAGATGATGTACAATGAAAAATAAGAAA [XGTACX_site5840],9.18 ± 0.37
13,AAATGGACCTAATTATCACACATTATACTCGTTTTC [CACACA_site5996],8.56 ± 0.43
14,ATATATCATAATAAAAGTACTTATATATTTTATATA [XGTACX_site560],8.19 ± 0.33
15,AAAATAAATAAATATACACACCATATATATATTTTT [CACACA_site5573],8.3 ± 0.42
16,ATATTTATAACTTGTACACACAAATATGCATATATA [CACACA_site7583],8.84 ± 0.33
17,TTATTATTCCCTCATTTTGTTACCATTATTTCAATT [CACACA_negctrl_site1023],9.12 ± 0.4
18,TTAAAATTTTTTTTTTTTTTTTTTTTTTTTTTTTTC [CACACA_negctrl_site957],7.71 ± 0.56
19,TTGTTAAAATTATTAAGTTAAATATCGATTTGTAAA [XGTACX_negctrl_site429],8.06 ± 0.41

row,Sequence,gcPBM binding intensity (ln)
1,TATAAGTTTATATATACACACATATATATATATATA [CACACA_site3274],10.2 ± 0.34
2,TAAAATGAATATAGGTGTACTTAAAAAAAAGTAAAA [XGTACX_site4613],8.57 ± 0.23
3,TAAAAGAAATAATATACACACATATATAAAAATAAA [CACACA_site1329],8.51 ± 0.51
4,TAAATTCTTTATAATCGTACATAAATAGAAAAATAA [XGTACX_site601],8.52 ± 0.33
5,TATCGAGCCATTTTTACATGCAATTATACATAATTT [TGCATGCA_site987],8.96 ± 0.42
6,CATGTATACTATAATACACACTATAAAATATACACC [CACACA_site7121],8.53 ± 0.19
7,TTCAAATAATTTAAATGTACGTTGCTTTATTAAAAG [XGTACX_site3674],8.38 ± 0.28
8,ATGATGAAAATAGAAATACACACTAAAAAATAAAAT [CACACA_site1136],8.71 ± 0.7
9,ATAAATAATAAAAAATGTACACATATAAATATAAAG [XGTACX_site727],8.705 ± 0.078
10,AAAACATGTTCAACATGTACACAACAGGATGAATAT [XGTACX_site506],8.95 ± 0.42
11,AAATATATGTTATATGTGCACTTTTTTTTTTTTTTT [GTGCAC_site9667],8.86 ± 0.092
12,CTTACTTACTTACTCACACACATATACAAAGAAAAA [CACACA_site3347],8.74 ± 0.38
13,TTTTACTAAATATATACACACATTATACATATATAT [CACACA_site9081],8.52 ± 0.3
14,TGTTAAAAGGTTAAATTAAAATAACCTCCGGAAATT [GTGCAC_negctrl_site236],8.34 ± 0.48
15,GAATGCATGTAAATATGTACATATATTTAAAAATTT [XGTACX_site6032],8.89 ± 0.41
16,AAAAAAATTTCACATTGTACTTTAATAATATACTAC [XGTACX_site7264],8.31 ± 0.25
17,ATAAATATATATTTACGTACATATTATATATATATA [XGTACX_site6172],9.68 ± 0.35
18,ACATATAAATTGTGTACACATATATATATATTTTTT [CACACA_site5946],8.62 ± 0.18
